In a compilation of properties of binary mixtures (doi:10.1007/s10953-017-0578-y):
Some of these densities may be calculated back from excess volumes.

Experiment: xn = mol fraction of the nth substance listed
Details: 100 kPa

CNc1ccccc1 + CC[n+]1ccn(C)c1.F[B-](F)(F)F
mass density [kg/m3]
Details | x2 = 0 | x2 = 0.1046 | x2 = 0.2048 | x2 = 0.3057 | x2 = 0.3985 | x2 = 0.5064 | x2 = 0.6045 | x2 = 0.6994 | x2 = 0.8005 | x2 = 0.9084
293.15 K | – | 1042.1 | 1084.9 | 1122.1 | 1152.4 | 1182.1 | – | 1228.5 | 1248.5 | 1268.8
303.15 K | – | 1034.8 | 1077.1 | – | 1144.6 | 1174.2 | 1198.9 | 1220.9 | 1241.3 | 1261.8
313.15 K | 970.3 | – | – | 1105.9 | 1136.9 | 1166.3 | 1191.3 | 1213.2 | 1234 | 1254.8
323.15 K | 962.1 | 1020.1 | 1061.5 | 1097.9 | 1129.1 | 1158.5 | – | 1205.5 | 1226.8 | 1247.9

CC[n+]1ccn(C)c1.F[B-](F)(F)F + CNc1ccccc1
x1 = 1
Details | mass density [kg/m3]
293.15 K | 1283.6
303.15 K | 1276.1
313.15 K | 1268.6
323.15 K | 1261
